Experimental data published in PubChem BioAssay AID1460 (National Center for Advancing Translational Sciences (NCATS), 2008).
Values joined by “and” are separate entries in the source; they are usually repeats but may differ in a detail not shown here. Equal values may be shown once. The campaign covered roughly 270,000 compounds. About 5,800 (2.1%) were called active. This list was built around the results that the source calls inconclusive (neither active nor inactive); the mix of calls is not that of the screen. The call rests on the fitted dose curve; in most records, active means well fitted inhibition curve with a large enough effect; inconclusive means small, poorly fitted or top-dose-only effect; inactive means flat fitted curve, though single readings scatter. Where the call is inconclusive, the potency comes from a doubtful curve fit.
Further: nearly all actives have a fitted effect of over 55% in size.
Potency means the concentration at half of the fitted maximal effect; tags describe the fitted curve by direction and shape.

Each molecule was assayed against Microtubule-associated protein tau (Homo sapiens) (UniProt P10636) (assay: qHTS for Inhibitors of Tau Fibril Formation, Thioflavin T Binding). Details: recombinant tau K18 P301L, heparin-induced fibrillization, ThT fluorescence; series mostly up to 57.4 µM.
Chain of UniProt P10636 (P10636 whole entry, looked up): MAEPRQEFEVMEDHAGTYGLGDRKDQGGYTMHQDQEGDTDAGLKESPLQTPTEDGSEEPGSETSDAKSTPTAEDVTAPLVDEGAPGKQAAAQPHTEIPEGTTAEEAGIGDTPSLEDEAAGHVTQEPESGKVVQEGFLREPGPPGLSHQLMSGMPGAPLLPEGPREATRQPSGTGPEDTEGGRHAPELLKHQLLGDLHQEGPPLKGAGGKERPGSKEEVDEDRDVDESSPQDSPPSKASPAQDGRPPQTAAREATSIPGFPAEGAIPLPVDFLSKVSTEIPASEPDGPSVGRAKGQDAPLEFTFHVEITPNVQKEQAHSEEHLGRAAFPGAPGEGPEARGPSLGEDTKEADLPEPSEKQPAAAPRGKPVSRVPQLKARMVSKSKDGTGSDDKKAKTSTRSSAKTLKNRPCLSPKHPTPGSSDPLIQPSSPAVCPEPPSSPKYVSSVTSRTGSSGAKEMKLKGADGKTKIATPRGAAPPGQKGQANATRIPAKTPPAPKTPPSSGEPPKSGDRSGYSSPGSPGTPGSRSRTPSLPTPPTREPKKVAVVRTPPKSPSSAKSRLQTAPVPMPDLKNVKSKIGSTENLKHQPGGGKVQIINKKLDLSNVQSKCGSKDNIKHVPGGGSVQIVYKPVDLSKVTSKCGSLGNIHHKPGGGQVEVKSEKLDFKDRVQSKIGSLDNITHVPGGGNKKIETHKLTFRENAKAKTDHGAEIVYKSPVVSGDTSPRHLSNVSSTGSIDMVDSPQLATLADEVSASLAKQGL
How it was run: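 ThT emission at 510 nm, taken 1 hr after adding 30 uM dye, quantifies aggregates formed when 20 uM heparin acts on human tau K18 P301L for 6 hr at 37 C.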
For `COc1ccc(-c2nc(C#N)c(N3CCN(c4cccc(Cl)c4)CC3)o2)cc1OC`, the Potency was inconclusive: 0.891 µM [inhibitor, full curve]. `CC1(C)Cc2c(C#N)c(N)sc(=S)c2CO1` was tested, and the Potency was inconclusive: 31.6 µM [inhibitor, partial curve]. `COCCCn1c(SCC(=O)Nc2sc3c(c2C#N)CCCC3)nnc1-c1ccncc1` was tested, and the Potency was inconclusive: 11.2 µM [inhibitor, partial curve]. In the case of `CCOc1ccc(N(C(=O)CC(C)C)S(=O)(=O)c2ccc3c(c2)oc(=O)n3C)cc1`, the Potency was inconclusive: 0.316 µM [inhibitor, full curve]. `CCOC(=O)c1cc2c(=O)n3ccccc3nc2n(Cc2ccco2)c1=NC(=O)c1cccnc1` was tested, and the Potency was “inactive”. With `COc1ccc(NC(=O)c2cnc3sccn3c2=O)cc1` the Potency was inconclusive: 20 µM [inhibitor, partial curve]. `O=C(c1ccc(N2CCN(C3CC(=O)N(c4ccc(F)cc4)C3=O)CC2)cc1)c1cccnc1` (stereo not drawn) was tested, and the Potency was inconclusive: 28.2 µM [inhibitor, single point]. `COCCNc1nnc(SCC(=O)Nc2sc3c(c2C(=O)c2ccccc2)CCCC3)s1` was tested, and the Potency was inconclusive: 15.8 µM [inhibitor, partial curve]. In the case of `Fc1ccccc1NC(=S)N/N=C/c1ccccc1Br`, the Potency was inconclusive: 8.91 µM [inhibitor, partial curve]. With `O=S(=O)(NCCc1nnc2ccc(SCc3ccc(Cl)cc3Cl)nn12)c1ccccc1` the Potency was “inactive”. `CCOC(=O)c1ccc(NC(=O)c2c(NC(C)=O)sc3c2CCC(C)C3)cc1` (stereo not drawn) was tested, and the Potency was inconclusive: 6.31 µM [inhibitor, partial curve, poor fit]. For `CCOc1ccc(CCNC(=O)c2ccc3c(Cl)c4c(nc3c2)CCCC4)cc1`, the Potency was inconclusive: 7.08 µM [inhibitor, partial curve]. With `COc1cccc(C(c2sc3nc(-c4ccco4)nn3c2O)N2CCC(O)CC2)c1` (stereo not drawn) the Potency was inconclusive: 39.8 µM [inhibitor, single point]. For `N#C/C(=C/c1ccc(N2CCCCC2)o1)C(=O)NCCc1c[nH]c2ccccc12`, the Potency was active: 4.47 µM. For `CCS(=O)(=O)N1Cc2ccccc2CC1C(=O)Nc1nnc(SCc2ccc(C#N)cc2)s1` (stereo not drawn), the Potency was inconclusive: 3.55 µM [inhibitor, full curve]. `CN1N=C(C(=O)N2CCc3c([nH]c4ccccc34)C2c2ccccc2Cl)CCC1=O` (stereo not drawn) was tested, and the Potency was “inactive”. `Cn1c(CNc2nc(-c3ccccc3)cs2)nnc1SCC(=O)N1CCc2ccccc21` was tested, and the Potency was inconclusive: 17.8 µM [inhibitor, partial curve]. `CCOc1ccc(C(=O)N/N=C/c2ccccc2[N+](=O)[O-])cc1` was tested, and the Potency was inconclusive: 2.24 µM [inhibitor, full curve]. `CC(=O)Nc1cc(C)nn1-c1nc2ccccc2s1` was tested, and the Potency was inconclusive: 14.1 µM [inhibitor, partial curve]. In the case of `CC(C)[C@@H](CC(=O)N[C@@H]1CCCC[C@H]1C(=O)N[C@H](CC(=O)N[C@@H](CCC(=O)O)CC(=O)O)Cc1c[nH]c2ccccc12)NC(=O)C[C@H](Cc1ccccc1)NC(=O)[C@@H]1CCCC[C@H]1N`, the Potency was “inactive”. With `CCOC(=O)c1cccc(N/C=C/C(=O)c2ccc(OC)c(OC)c2)c1` the Potency was inconclusive: 14.1 µM [inhibitor, partial curve]. `COc1cc(C2C3=C(CCCC3=O)Nc3[nH]n(-c4ccccc4)c(=O)c32)ccc1O` (stereo not drawn) was tested, and the Potency was inconclusive: 17.8 µM [inhibitor, single point]. `N#CC1=C(SCC(=O)c2ccc(Cl)cc2)NC2=C(C(=O)CCC2)C1c1ccco1` (stereo not drawn) was tested, and the Potency was inconclusive: 6.31 µM [inhibitor, partial curve]. With `O=C(NCc1nc2ccccc2[nH]1)C1=C[C@H](c2ccc3c(c2)OCO3)C[C@H](OCCCCO)O1` the Potency was inconclusive: 39.8 µM [inhibitor, single point]. In the case of `C1=CC2CC1CC2CN1CCN(c2ccccc2)CC1` (stereo not drawn), the Potency was “inactive”. `COc1ccc(C(=O)NNc2ccccc2)cc1` was tested, and the Potency was “inactive”. For `O=C(CCc1ccc(O)cc1)c1c(O)cc(O)cc1O[C@@H]1O[C@H](CO)[C@@H](O)[C@H](O)[C@H]1O`, the Potency was “inactive”. For `Cc1ccc(CNC(=O)C2(CC(C)C)C=CCN2C(=O)c2ccccc2)o1` (stereo not drawn), the Potency was inconclusive: 1.78 µM [inhibitor, full curve, poor fit]. `CCOCCCNC(=O)C1CCN(c2nn3cc(-c4ccc(F)cc4)nc3s2)CC1` was tested, and the Potency was inconclusive: 1.26 µM [inhibitor, full curve, poor fit]. With `Cc1cc(=O)n2nc(N3CCC(C(=O)NC(C)c4ccccc4)CC3)sc2n1` (stereo not drawn) the Potency was inconclusive: 17.8 µM [inhibitor, partial curve]. With `Cn1nc(C(=O)Nc2nc3ccccc3[nH]2)c2ccccc2c1=O` the Potency was inconclusive: 28.2 µM [inhibitor, single point]. With `COc1ccc(C(=O)SC2=NCCS2)cc1OC` the Potency was inconclusive: 22.4 µM [inhibitor, partial curve]. In the case of `CC(=O)N1CCN(c2ccc(NC(=O)c3ccc(Br)o3)cc2Cl)CC1`, the Potency was inconclusive: 8.91 µM [inhibitor, partial curve]. `COc1ccc(Nc2cc(C(=O)NCCc3ccc(C)cc3)c3ccccc3n2)c(OC)c1` was tested, and the Potency was inconclusive: 7.94 µM [inhibitor, single point]. In the case of `COc1cccc(C(=O)COc2cccc(NC(=O)c3ccco3)c2)c1`, the Potency was inconclusive: 12.6 µM [inhibitor, partial curve]. `O=C(N/N=C/c1ccc(-c2cccc([N+](=O)[O-])c2)o1)c1ccc([N+](=O)[O-])cc1` was tested, and the Potency was active: 5.62 µM. In the case of `S=C(S)OC1CC2CC1C1CCCC21` (stereo not drawn), the Potency was inconclusive: 12.6 µM [inhibitor, partial curve] and inconclusive: 3.98 µM [inhibitor, partial curve]. In the case of `Cc1ccc(-c2nnc(Nc3ccc(O)cc3)c3ccccc23)cc1S(=O)(=O)N1CCN(C)CC1`, the Potency was inconclusive: 15.8 µM [inhibitor, partial curve]. `Cc1c(C(=O)CN2CCOCC2)[nH]c2ccccc12` was tested, and the Potency was inconclusive: 39.8 µM [inhibitor, single point]. `O=C(CN1CCN(S(=O)(=O)c2ccc(Cl)cc2)CC1)Nc1ccc(N2CCOCC2)cc1` was tested, and the Potency was inconclusive: 28.2 µM [inhibitor, single point]. For `Cc1ccc(S(=O)(=O)Cc2ccc(C(=O)N3CCCC3)o2)cc1`, the Potency was “inactive”. For `COc1cc(/C=N/NC(=O)c2cncc(Br)c2)cc([N+](=O)[O-])c1O`, the Potency was active: 12.6 µM. With `N#CCC(=O)N/N=C/c1ccc(Sc2nc3ccccc3s2)o1` the Potency was inconclusive: 28.2 µM [inhibitor, partial curve]. For `Cc1ccc(S(=O)(=O)Cn2nnnc2C(CC(C)C)N2CCN(C(=O)c3ccco3)CC2)cc1` (stereo not drawn), the Potency was inconclusive: 25.1 µM [inhibitor, single point]. In the case of `c1ccc(-c2nn3c(C4CCCCC4)nnc3s2)nc1`, the Potency was “inactive”. For `C/C(=C1/SC(=S)N(CCC(=O)O)C1=O)c1ccc(O)cc1`, the Potency was inconclusive: 8.91 µM [inhibitor, partial curve]. With `COc1ccc2nc(N3C(=O)CC(Cc4ccc(C)cc4)C3=O)sc2c1` (stereo not drawn) the Potency was inconclusive: 3.98 µM [inhibitor, single point]. For `Cn1cccc1/C=N/N1CCN(Cc2cccc3ccccc23)CC1`, the Potency was inconclusive: 17.8 µM [inhibitor, partial curve, poor fit]. `Cc1cccc(OCC(=O)N2CCC(c3ccccc3)C2)c1` (stereo not drawn) was tested, and the Potency was inconclusive: 28.2 µM [inhibitor, single point]. With `COc1ccc(Cl)cc1NC(=O)c1sc(-n2nc(C)c(Cc3ccccc3)c2C)nc1C` the Potency was “inactive”. In the case of `Cc1cccc2sc(NNC(=O)c3ccc4c(c3)OCCO4)nc12`, the Potency was inconclusive: 25.1 µM [inhibitor, partial curve]. `Fc1ccc2nc(Nc3nc4c(F)cc(F)cc4s3)sc2c1` was tested, and the Potency was inconclusive: 2.24 µM [inhibitor, full curve, poor fit]. For `COc1ccc(NC(=O)/C(C#N)=C\c2ccc(Br)o2)cc1`, the Potency was inconclusive: 0.631 µM [inhibitor, full curve]. With `Cc1cc(OCC(=O)O/N=C(\N)c2ccccc2)cc(C)c1Cl` the Potency was inconclusive: 25.1 µM [inhibitor, partial curve]. For `COc1ccc(-c2[nH]ncc2/C=N/NC(=O)c2cc(Br)ccc2O)c(OC)c1`, the Potency was inconclusive: 20 µM [inhibitor, partial curve]. In the case of `CCOc1ccc(-c2nn(CC(=O)NC3CCCCC3)c3c2cnc2ccc(C)cc23)cc1`, the Potency was “inactive”. `Cc1ccc(Cl)cc1N1CCN(C(=O)Cn2ccc3ccccc3c2=O)CC1` was tested, and the Potency was “inactive”. In the case of `COc1ccc(-c2ocnc2C(=O)N2CCN(C(c3ccccc3)c3ccccc3)CC2)cc1`, the Potency was inconclusive: 17.8 µM [inhibitor, partial curve, poor fit]. `Cc1cccc(NC(=O)Nc2ccc3c(c2)OCO3)n1` was tested, and the Potency was inconclusive: 12.6 µM [inhibitor, partial curve]. With `CCOC(=O)c1c(C)[nH]c(C)c1C(=O)COC(=O)c1cccc(C)c1O` the Potency was inconclusive: 22.4 µM [inhibitor, single point]. `CNNC(=S)Nc1cccc(SC)c1` was tested, and the Potency was inconclusive: 39.8 µM [inhibitor, single point]. For `Cc1[nH]n(-c2ccccc2)c(=O)c1C=Nc1cccc2cccnc12`, the Potency was inconclusive: 15.8 µM [inhibitor, partial curve]. In the case of `O=C(O)CCc1ccc(-c2cccs2)o1`, the Potency was inconclusive: 28.2 µM [inhibitor, partial curve].
